# Structures can show the parent of a compound that is named as a salt. This is one part of the list. The data scatter; read single values as rough.
# System: MKN45
# Assay: ALDHbr (CSC) cell proportion score relative to DMSO vehicle (ratio to DMSO); breast (SUM159) / gastric (MKN45) / pancreatic (PANC1) / colon cancer lines; ALDHbr cells have high ALDH activity and are rich in cancer stem cells (CSC); higher = more CSC (ALDHbr) cells remaining
# Details: 10 µM; 72 h
# 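Further: High-content imaging of ALDEFLUOR-stained cells with Hoechst-labelled nuclei in 384-well plates, triplicate wells, scored as Z-score against 0.1% DMSO vehicle, negative meaning fewer ALDHbr cells.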
row,Structure (SMILES),ALDHbr
1,CN(C)CCc1c[nH]c2ccc(C[C@H]3COC(=O)N3)cc12 [Zolmitriptan],1.02
2,NS(=O)(=O)c1cc2c(cc1Cl)NCNS2(=O)=O [Hydrochlorothiazide],1.04
3,C[C@H]1O[C@H](O[C@H]2[C@H](O)[C@@H](O)[C@@H](O[C@@H]([C@H](O)[C@@H](O)C=O)[C@H](O)CO)O[C@@H]2CO)[C@H](O)[C@@H](O)[C@@H]1N[C@H]1C=C(CO)[C@@H](O)[C@H](O)[C@H]1O [Acarbose],1.13

# System: PANC1
# Assay: as above
# Details: 10 µM; 72 h
row,Structure (SMILES),ALDHbr
1,C[C@]12CC[C@@H]3c4ccc(O)cc4CC[C@H]3[C@@H]1CCC2=O [Estrone],0.673
2,CCCCC1(COC(=O)CCC(=O)O)C(=O)N(c2ccccc2)N(c2ccccc2)C1=O [Suxibuzone],0.778
3,CCCCNc1c(C(=O)OCC)c(C)nc2c1cnn2CC [Tracazolate hydrochloride],0.214
4,Cn1cnc([N+](=O)[O-])c1Sc1ncnc2[nH]cnc12 [Azathioprine],0.715
5,O=C(CCCCC(=O)Nc1c(I)cc(I)c(C(=O)O)c1I)Nc1c(I)cc(I)c(C(=O)O)c1I [Iodipamide],0.918
6,CN(C)CCOC(=O)COc1ccc(Cl)cc1 [Meclofenoxate hydrochloride],1.07
7,C#CCN(C)CCCOc1ccc(Cl)cc1Cl [Clorgyline hydrochloride],0.908
8,C#C[C@]1(O)CC[C@H]2[C@@H]3CCC4=C(CCC(=O)C4)[C@H]3CC[C@@]21C [Norethynodrel],0.596
9,c1cnc(N2CCN(Cc3ccc4c(c3)OCO4)CC2)nc1 [Piribedil hydrochloride],1.02
10,CCN(CC)CCOC(=O)C(c1ccccc1)c1ccccc1 [Adiphenine hydrochloride],0.964
11,OCCOCCN1CCN(C2=Nc3ccccc3Sc3ccccc32)CC1 [Quetiapine hemifumarate],0.763
12,CC(C)N1CCN(c2ccc(OCC3COC(Cn4cncn4)(c4ccc(Cl)cc4Cl)O3)cc2)CC1 (stereo not drawn) [Terconazole],0.756
13,CN1CCC[C@@H]1CCO[C@](C)(c1ccccc1)c1ccc(Cl)cc1 [Clemastine fumarate],0.998
14,CC(C)Oc1ccc2c(=O)c(-c3ccccc3)coc2c1 [Ipriflavone],0.627
15,O=C(Cn1ccnc1[N+](=O)[O-])NCCO [Etanidazole],0.949
16,O=C1c2c(O)cccc2Cc2cccc(O)c21 [Anthralin],0.988
17,O=C(CCCN1CC=C(n2c(=O)[nH]c3ccccc32)CC1)c1ccc(F)cc1 [Droperidol],0.717
18,N/C(=N\C(=O)c1nc(Cl)c(N)nc1N)NCc1ccccc1 [Benzamil hydrochloride],0.747
19,CN1CCN2c3ncccc3Cc3ccccc3C2C1 (stereo not drawn) [Mirtazapine],0.981
20,Nc1c2c(nc3ccccc13)CCCC2 [Tacrine hydrochloride],0.94

row,Structure (SMILES),ALDHbr
1,CC(=O)Nc1ccc(O)cc1 [Acetaminophen],0.884
2,CN(C)CCOC(=O)C(c1ccccc1)C1(O)CCCC1 (stereo not drawn) [Cyclopentolate hydrochloride],0.96
3,CN(C)CCN(Cc1ccc(Cl)cc1)c1ccccn1 [Chloropyramine hydrochloride],1.08
4,COc1c(O[C@@H]2O[C@H](CO)[C@@H](O)[C@H](O)[C@H]2O)cc2c(c1OC)-c1ccc(SC)c(=O)cc1[C@@H](NC(C)=O)CC2 [Thiocolchicoside],1.09
5,CC(C)Nc1cccnc1N1CCN(C(=O)c2cc3cc(NS(C)(=O)=O)ccc3[nH]2)CC1 [Delavirdine],0.594
6,CCCCC(=O)N(Cc1ccc(-c2ccccc2-c2nnn[nH]2)cc1)[C@H](C(=O)O)C(C)C [Valsartan],0.948
7,OC(CCN1CCCCC1)(c1ccccc1)c1ccccc1 [Pridinol methanesulfonate salt],0.912
8,C/C=C(/C(=C/C)c1ccc(O)cc1)c1ccc(O)cc1 [Dienestrol],0.809
9,CC[N+](C)(C)Cc1ccccc1Br [Bretylium tosylate],1.05
10,COC1=C(OC)C(=O)C(CCCCCCCCCCO)=C(C)C1=O [Idebenone],1.1
11,C[C@H](CCC(=O)O)[C@H]1CC[C@H]2[C@@H]3CC[C@@H]4C[C@H](O)CC[C@]4(C)[C@H]3CC[C@]12C [Lithocholic acid],0.961
12,Nc1nc(F)nc2c1ncn2[C@@H]1O[C@H](CO)[C@@H](O)[C@@H]1O [Fludarabine],0.0267
13,O=C(O)Cc1ccccc1Nc1c(Cl)cccc1Cl [Diclofenac sodium],1.04
14,O=C1Nc2ccc(Cl)cc2[C@@](C#CC2CC2)(C(F)(F)F)O1 [Efavirenz],0.924
15,CCN(CC)CCNC(=O)c1cc(Br)c(N)cc1OC [Bromopride],0.874
16,CN(Cc1ccc(C(C)(C)C)cc1)Cc1cccc2ccccc12 [Butenafine Hydrochloride],1.08
17,CCCCc1ncc(/C=C(\Cc2cccs2)C(=O)O)n1Cc1ccc(C(=O)O)cc1 [Eprosartan mesylate],1.03
18,CN(C)CCc1c[nH]c2ccc(C[C@H]3COC(=O)N3)cc12 [Zolmitriptan],0.916
19,NS(=O)(=O)c1cc2c(cc1Cl)NCNS2(=O)=O [Hydrochlorothiazide],0.984
20,C[C@H]1O[C@H](O[C@H]2[C@H](O)[C@@H](O)[C@@H](O[C@@H]([C@H](O)[C@@H](O)C=O)[C@H](O)CO)O[C@@H]2CO)[C@H](O)[C@@H](O)[C@@H]1N[C@H]1C=C(CO)[C@@H](O)[C@H](O)[C@H]1O [Acarbose],0.877
